The values that follow come from the supplement of paper PMC9174493.

Where a name gives a salt, the structure may show the parent alone. The list shows a part of the results. Single values of this set are uncertain. Values with irradiation are relative to irradiated vehicle.

Test [1] relates to A549-Dual. Put plainly: NF-kB reporter (SEAP) activity, viability-corrected, relative to vehicle (fold change vs vehicle); higher = more activation of STING-IRF / NF-kB immune response reporter. The conditions noted are these: 10 µM.
Test [2] has as its system A549-Dual. Put plainly: ISRE reporter (Lucia luciferase) activity, viability-corrected, relative to vehicle (fold change vs vehicle); higher = more activation of STING-IRF / NF-kB immune response reporter. Conditions: 10 µM.
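For NF-kB reporter (SEAP) activity, viability-corrected, relative to vehicle in this document: viability correction based on the alamar blue assay, with concentrations leaving 10% survival or less dropped.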

As for `NC(CCC(=O)[O][Na])C(=O)O` [L-Glutamic acid monosodium salt], the figures for the NF-kB reporter in test [1] (irradiation: 8 Gy/4 fr) and in test [1] (irradiation: none) were 0.859 and 0.79, respectively. Further, the ISRE reporter in test [2] (irradiation: 8 Gy/4 fr) came out at 0.878; in test [2] (irradiation: none), 0.703.

Take `O=C1OC(CO)C(O)C(O)C1O` (stereo not drawn) [Gluconolactone]: the NF-kB reporter in test [1] (irradiation: 8 Gy/4 fr) stood at 0.468; in test [1] (irradiation: none), 0.654. Also, the ISRE reporter in test [2] (irradiation: 8 Gy/4 fr) was 0.602; in test [2] (irradiation: none), 0.6.

Turning to `Cc1ccccc1C(=O)Nc1ccc(C(=O)N2CCCC(N(C)C)c3ccccc32)cc1` (stereo not drawn) [Mozavaptan], the NF-kB reporter was determined as 0.836 in test [1] (irradiation: 8 Gy/4 fr) and 1.13 in test [1] (irradiation: none). The ISRE reporter in test [2] (irradiation: 8 Gy/4 fr) was found to be 0.78; in test [2] (irradiation: none), 1.08.

For the compound `C[C@H](N)C(=O)O` [L-Alanine], the NF-kB reporter in test [1] (irradiation: 8 Gy/4 fr) came out at 1.46; in test [1] (irradiation: none), 1.03. For the same compound, the ISRE reporter in test [2] (irradiation: 8 Gy/4 fr) came to 1.44; in test [2] (irradiation: none), 1.08.

Consider `O=C(NCCN1CCOCC1)c1ccc(Cl)cc1`, for which the results for the NF-kB reporter in test [1] (irradiation: 8 Gy/4 fr) and in test [1] (irradiation: none) were 0.528 and 0.735, respectively. Also, the ISRE reporter in test [2] (irradiation: 8 Gy/4 fr) came out at 0.646; in test [2] (irradiation: none), 0.838.

For the compound `CC1(C)CCC2(C(=O)O)C(O)CC3(C)C(=CCC4C5(C)CCC(O)C(C)(C=O)C5CCC43C)C2C1` (stereo not drawn) [Quillaic acid], the NF-kB reporter worked out at 0.99 in test [1] (irradiation: 8 Gy/4 fr) and 0.882 in test [1] (irradiation: none). The ISRE reporter in test [2] (irradiation: 8 Gy/4 fr) was determined as 0.938; in test [2] (irradiation: none) it was 0.871.

With `CN(C)c1ccc2nc3ccc(=[N+](C)C)cc-3sc2c1.[Cl-]` [Methylene Blue], the NF-kB reporter in test [1] (irradiation: 8 Gy/4 fr) turned out to be 0.984; in test [1] (irradiation: none), 2.52. Further, the ISRE reporter came out at 0.311 in test [2] (irradiation: 8 Gy/4 fr) and 2.25 in test [2] (irradiation: none).
